Laboratory results published in PubChem BioAssay (NCATS).
Values joined by “and” are separate entries in the source; they are usually repeats but may differ in a detail not shown here. Equal entries are not always repeated. This list was built around the results that the source calls inconclusive (neither active nor inactive); the mix of calls is not that of the screen. Where the call is inconclusive, the potency comes from a doubtful curve fit. Active and inactive are the calls of the source. Calls follow the shape of the dose curve; as a rule, active = well fitted cell-killing curve with a large enough effect; inconclusive = small, poorly fitted or top-dose-only effect; inactive = no such curve, though single readings can be large or run the other way.

Assay: qHTS of pediatric cancer cell lines to identify multiple opportunities for drug repurposing: Primary screen for SK-N-SH cells (AID 1347098); also: nearly all actives have a fitted effect of over 65% in size
Details: SK-N-SH viability, CellTiter-Glo luminescence, 48 h; activity change, negative = cytotoxic: at 57 µM (top of the series)
Source text: Drug repurposing or repositioning has been offered as a strategy for drug development in oncology programs. This approach has special potential for childhood cancers and other rare or orphan diseases, where the expected return on new drug development has been a disincentive to pharmaceuticals.
In this project we exploit the poly-pharmacology of drugs to discover new indications via phenotypic screening of a panel of 19 well-characterized cell lines derived from solid tumors seen in children and adolescents. The goal is to identify approved drugs with previously unrecognized anticancer properties that has the potential to reveal new mechanisms and biological processes involved in carcinogenesis or drug resistance. We employed a titration-based paradigm (quantitative high-throughput screening or qHTS), where all compounds were tested at multiple concentrations for their effect on cell viability. Concentration-response curves (CRCs) were derived directly from the primary screen, and both potency and efficacy values were used to identify compounds with robust bioactivity profiles. We screened the NIH Chemical Genomics Center (NCGC) Pharmaceutical Collection (NPC) and Mechanism Interrogation Plate (MIPE) small molecule collections of approved and investigational compounds against these cell lines; and measured metabolically active cells after 48 hours of compound treatment as a proxy for cell viability.
Assay Submitter: Nathalia J. Martinez, National Center for Advancing Translational Sciences, National Institutes of Health, Rockville, MD, USA; email: natalia.martinez@nih.gov
[1] Shen, M et al. Quantitative high-throughput phenotypic screening of pediatric cancer cell lines identifies multiple opportunities for drug repurposing. Oncotarget 2017 Dec 19;9(4):4758-4772. PMID 29435139.
The cells were obtained from University of North Carolina (UNC), Pediatric Preclinical Testing Program (PPT), and Coriell Institute (CI).
qHTS cell viability assay:
Cells were assayed in growth media at a density of 500-1,000 cells/well. Five microliters of cells were dispensed into 1,536-well, white, solid-bottom, TC-treated plates (Greiner Bio One) using a multidrop dispenser and incubated at 37 degrees C, 5% CO2, under a humidified atmosphere for 5 hours. Twenty-three nanoliters of compounds and controls (neutral control DMSO or positive control bortezomib at final concentration of 2.3 µM) were subsequently transferred by Kalypsys pintool. For primary screens, the MIPE collection was tested at 11-point dilutions (final concentrations range from 0.78 nM to 46 µM) and the NPC collection at 8-point dilutions (final concentrations range from 0.59 nM to 46 µM). Compounds tested in follow-up screens were assayed at 11-point dilutions. Cells were incubated for 48 hours, followed by addition of 3 µL of CellTiter-Glo (Promega). After a 15 min incubation at room temperature, samples were analyzed for luminescence intensity using a ViewLux High-throughput CCD imager equipped with clear filters.
% is scaled to controls: 0 for no effect and ±100 for the full control effect; potency is read from the fitted curve at half-maximal effect; tags tell the direction and shape of the fitted curve.

| Compound | Potency | activity change, negative = cytotoxic |
| --- | --- | --- |
| COc1cc([C@@H]2c3cc4c(cc3[C@H](O)[C@H]3COC(=O)[C@H]23)OCO4)cc(OC)c1OC | inconclusive: 0.0086 µM [cytotoxic, full curve, poor fit] | – |
| O=C(NC1CC1)c1cccc(-c2ccc3c(NC(=O)C4CC4)n[nH]c3c2)c1 | active: 1.71 µM | – |
| CNC(=O)c1cc(Oc2ccc(NC(=O)Nc3ccc(Cl)c(C(F)(F)F)c3)c(F)c2)ccn1 | inconclusive: 7.64 µM [cytotoxic, partial curve] | – |
| Nc1ncnc2c1ncn2[C@@H]1O[C@H](CO)C[C@@H]1O | inconclusive: 24.1 µM [cytotoxic, partial curve] | – |
| O=c1[nH]cnc2c1ncn2[C@H]1CC[C@@H](CO)O1 | inconclusive: 0.0864 µM [cytotoxic, full curve, poor fit] | – |
| CN1[C@H]2CC[C@H]1CC(OC(=O)c1c[nH]c3ccccc13)C2 (stereo not given in full) | active: 24.1 µM | – |
| C[C@H]1c2cccc(O)c2C(O)=C2C(=O)[C@]3(O)C(O)=C(C(N)=O)C(=O)[C@@H](N(C)C)[C@@H]3[C@@H](O)[C@@H]21 | inactive | – |
| Cc1cc(C(=O)N2CCN(c3cccc(Cl)c3)CC2)n(-c2ccccc2)n1 | inconclusive: 0.152 µM [cytotoxic, full curve] | – |
| CC[C@H]1OC(=O)[C@H](C)C(=O)[C@H](C)[C@@H](O[C@H]2O[C@H](C)C[C@H](N(C)C)[C@@H]2O)[C@](C)(OC)C[C@@H](C)C(=O)[C@H](C)[C@H]2N(CCCCn3cnc(-c4cccnc4)c3)C(=O)O[C@]12C | inconclusive: 42.9 µM [cytotoxic, single point] | – |
| CC[C@H]1OC(=O)[C@H](C)[C@@H](O[C@H]2C[C@@](C)(OC)[C@@H](O)[C@H](C)O2)[C@H](C)[C@@H](O[C@@H]2O[C@H](C)C[C@H](N(C)C)[C@H]2O)[C@](C)(O)C[C@H](C)C(=NOCOCCOC)[C@H](C)[C@@H](O)[C@]1(C)O | active: 30.4 µM | – |
| CC=CC(=O)N(CC)c1ccccc1C | inconclusive: 24.1 µM [cytotoxic, partial curve] | – |
| CCOC(=O)C(C)(C)Oc1ccc(Cl)cc1 | inconclusive: 30.4 µM [cytotoxic, partial curve] | – |
| O=c1ccn([C@@H]2O[C@H](CO)[C@H](O)[C@H]2O)c(=O)[nH]1 | inconclusive: 30.4 µM [cytotoxic, single point] | – |
| O=C(NCc1ccncc1)C12C[C@H]3C[C@@H](C1)CC(c1ccc(Cl)cc1)(C3)C2 | inconclusive: 5.41 µM [cytotoxic, partial curve, poor fit] | – |
| CC(C)C(C)C=CC(C)C1CCC2C3=CC=C4CC(O)CCC4(C)C3CCC21C (stereo not given) | inconclusive: 21.5 µM [cytotoxic, partial curve] | – |
| Cc1cccc(-c2[nH]ncc2-c2ccc3ncccc3n2)n1 | – | inactive: 2.24% |
| O=C(NCCO[N+](=O)[O-])c1cccnc1 | inconclusive: 13.6 µM [cytotoxic, partial curve] | – |
| CN1CCC(=C2c3ccccc3C=Cc3ccccc32)CC1 | inconclusive: 13.7 µM [cytotoxic, partial curve] and active: 24.1 µM | – |
| CC1(C)[C@H](C(=O)O)N2C(=O)C[C@H]2S1(=O)=O | inconclusive: 4.29 µM [cytotoxic, full curve] | – |
| Cc1noc(-c2ccc(CSCCC(=O)O)cc2)c1NC(=O)OC(C)c1ccccc1Cl (stereo not given) | – | inactive: 2.36% |

| Compound | Potency | activity change, negative = cytotoxic |
| --- | --- | --- |
| N#Cc1ccc(Oc2ccc3c(c2)COB3O)cc1 | inconclusive: 42.9 µM [cytotoxic, single point] | – |
| c1ccc2c(-c3cnn4cc(-c5ccc(N6CCNCC6)cc5)cnc34)ccnc2c1 | inconclusive: 30.4 µM [cytotoxic, partial curve, poor fit] | – |
| CC(=O)O[C@]1(C(C)=O)CC[C@@H]2[C@@H]3C[C@H](C)C4=CC(=O)CC[C@]4(C)[C@H]3CC[C@@]21C | active: 24.1 µM | – |
| N#CC(=Cc1ccc(O)c(O)c1)C(=O)NCc1ccccc1 | inconclusive: 30.4 µM [cytotoxic, single point] | – |
| CNC(=O)[C@H](Cc1ccccc1)NC(=O)[C@H](CC(C)C)[C@H](CSc1cccs1)C(=O)NO | inconclusive: 17.1 µM [cytotoxic, partial curve] | – |
| Cc1cn2c(-c3cn[nH]c3)cnc2c(Nc2ccc(C(=O)N3CCNCC3)cc2F)n1 | active: 24.1 µM | – |
| CN(C)CCOc1cc(-c2cn[nH]c2)ccc1NC(=O)C1COc2ccccc2O1 (stereo not given) | active: 10.8 µM | – |
| O=c1cc(-c2ccc(O)c(O)c2)oc2cc(O)cc(O)c12 | inconclusive: 27.1 µM [cytotoxic, single point] | – |
| CCCC1OC2C[C@@H]3[C@H]4CCC5=CC(=O)C=C[C@]5(C)[C@H]4C(O)C[C@]3(C)[C@]2(C(=O)CO)O1 (stereo not given in full) | inconclusive: 27.1 µM [cytotoxic, single point] | – |
| C[C@@H](NCCCc1cccc(C(F)(F)F)c1)c1cccc2ccccc12 | inconclusive: 30.4 µM [cytotoxic, single point] and inconclusive: 34.4 µM [cytotoxic, partial curve, poor fit] | – |
| CO[C@H]1C[C@@H]2CC[C@@H](C)[C@@](O)(O2)C(=O)C(=O)N2CCCC[C@@H]2C(=O)O[C@H]([C@H](C)C[C@@H]2CC[C@H](OP(C)(C)=O)[C@H](OC)C2)CC(=O)[C@H](C)C=C(C)[C@@H](O)[C@@H](OC)C(=O)[C@H](C)C[C@H](C)C=CC=CC=C1C | – | inactive: -1.14% |
| CCCCC(C=O)NC(=O)C(CC(C)C)NC(=O)OCc1ccccc1 (stereo not given) | inconclusive: 27.1 µM [cytotoxic, single point] | – |
| COc1cc(C(C)=O)ccc1OCCCN1CCC(c2noc3cc(F)ccc23)CC1 | inconclusive: 38.3 µM [cytotoxic, single point] | – |
| CC(CCc1ccc(O)cc1)NCCc1ccc(O)c(O)c1 (stereo not given) | inconclusive: 38.3 µM [cytotoxic, single point] and inconclusive: 34.4 µM [cytotoxic, partial curve, poor fit] | – |
| Cc1ccc(N(CC2=NCCN2)c2cccc(O)c2)cc1 | inconclusive: 27.1 µM [cytotoxic, single point] and inconclusive: 24.4 µM [cytotoxic, single point] | – |
| CCNC(=O)c1cc2c(-c3cc(OCCN4CCCC4)c(Cl)cc3Cl)nc(N)nc2s1 | active: 3.04 µM | – |
| O=C(O)c1nc(=O)[nH]c(=O)[nH]1 | – | inactive: 5.37% [at 20 µM] |
| CN1CCN(c2cccc(Nc3nc4c(-c5ccc(S(C)(=O)=O)cc5)cccn4n3)c2)CC1 | inconclusive: 4.82 µM [cytotoxic, full curve] | – |
| CC(=O)OCC(=O)[C@@]1(O)[C@H](C)C[C@H]2[C@@H]3C=C(C)C4=Cc5c(cnn5-c5ccccc5)C[C@]4(C)[C@@H]3[C@@H](O)C[C@@]21C | – | inactive: -0.271% |
| CCN(CC)CCOc1ccc(C(=C(Cl)c2ccccc2)c2ccccc2)cc1 | inconclusive: 30.4 µM [cytotoxic, single point] | – |
